The values that follow come from patent publication US10947238B2, “Wee1 kinase inhibitors and methods of making and using the same” (THE REGENTS OF THE UNIVERSITY OF COLORADO, a body corporate, priority 2015, dated 2021).

Data set [1] has as its system medulloblastoma D458 suspension cell line. Nature of the data set: D458 cell number and viability by flow cytometry (Viacount). Format: cell-based. The settings on record: 72 hours, p<0.01. On the technique in general: A flow cytometer gives signals particle by particle.
The nature of data set [2]: pharmacokinetics and tissue distribution in mice with dorsal flank tumor xenografts. It is filed as in vivo. An excerpt: Data represent the mean±SD of 3 mice.
Data set [3] deals with Daoy cells. Nature of the data set: MTS assay of synergy with cisplatin in Daoy cells (Chou-Talalay Combination Index). The settings on record: 72 hours. Format: cell-based. The procedure: CI values determined using the Chou-Talalay equation, with combination treatments indicated as non-synergistic (red, >1.05), synergistic (green, <0.95) and intermediate (yellow, 0.96-1.04). […] Dose responses for increasing cisplatin concentrations at a concentration (300 nM) of several Wee1 inhibitors, compared to cisplatin alone.
(In general: Tetrazolium assays rely on reduction of a dye to a coloured formazan, in cell work by metabolically active cells.)

The next data set has as its system ONS-76 cells. Nature of the data set: MTS assay, ONS-76 cells, single agent. It is filed as cell-based.
For data set [4], the system named is Daoy cells. Nature of the data set: MTS assay, Daoy cells, single agent.
The target of a further data set is Wee1 kinase (Homo sapiens, UniProt P30291). The settings on record: cited from earlier work.
Sequence of UniProt P30291 (P30291 whole entry): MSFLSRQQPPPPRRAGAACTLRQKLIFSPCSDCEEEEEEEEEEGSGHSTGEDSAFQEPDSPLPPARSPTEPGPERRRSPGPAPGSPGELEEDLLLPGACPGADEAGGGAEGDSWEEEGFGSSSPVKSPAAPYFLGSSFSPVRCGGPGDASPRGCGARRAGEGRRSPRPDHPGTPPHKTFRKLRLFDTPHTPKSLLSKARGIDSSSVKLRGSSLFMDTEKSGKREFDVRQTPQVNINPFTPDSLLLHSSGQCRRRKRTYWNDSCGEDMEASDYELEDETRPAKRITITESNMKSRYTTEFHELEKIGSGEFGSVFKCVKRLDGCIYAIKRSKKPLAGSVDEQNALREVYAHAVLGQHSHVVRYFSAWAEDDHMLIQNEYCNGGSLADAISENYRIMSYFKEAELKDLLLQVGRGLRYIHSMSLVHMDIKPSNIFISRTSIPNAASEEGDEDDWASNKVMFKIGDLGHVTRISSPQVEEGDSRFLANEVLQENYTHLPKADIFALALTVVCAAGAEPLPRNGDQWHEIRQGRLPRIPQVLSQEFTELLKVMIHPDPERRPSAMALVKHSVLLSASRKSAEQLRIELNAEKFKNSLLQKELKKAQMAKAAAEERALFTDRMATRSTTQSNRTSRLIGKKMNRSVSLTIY

The term melting point denotes the temperature of the solid-liquid transition. In the case of `C=CCn1c(=O)c2cnc(Nc3ccc(N(C)C)cc3)nc2n1-c1cccc(C(F)(F)F)n1` [11e, 2-Allyl-6-((4-(dimethylamino)phenyl)amino)-1-(6-(trifluoromethyl)pyridin-2-yl)-1,2-dihydro-3Hpyrazolo[3,4-d]pyrimidin-3-one], the melting point fell in the range of 179 to 181 °C.

Take `C=CCn1c(=O)c2cnc(Nc3ccc(N4CCN(C(=O)OC)CC4)cc3)nc2n1-c1cccc(C(F)(F)F)n1` [11i, Methyl 4-(4-((2-allyl-3-oxo-1-(6-(trifluoromethyl)pyridin-2-yl)-2,3-dihydro-1H-pyrazolo [3,4-d]pyrimidin-6-yl)amino)phenyl)piperazine-1-carboxylate]: the melting point lay in the range of 164 to 167 °C.

`C=CCn1c(=O)c2cnc(Nc3ccc(N4CCCCC4)cc3)nc2n1-c1cccc(OC)n1` [11k, 2-Allyl-1-(6-methoxypyridin-2-yl)-6-((4-(piperidin-1-yl)phenyl)amino)-1,2-dihydro-3H-pyrazolo[3,4-d]pyrimidin-3-one]: the melting point lay within 166 to 167 °C.

Turning to `C=CCn1c(=O)c2cnc(Nc3ccc(N(C)C)cc3)nc2n1-c1cccc(C(C)(C)O)n1` [11a, 2-Allyl-6-((4-(dimethylamino)phenyl)amino)-1-(6-(2-hydroxypropan-2-yl)pyridin-2-yl)-1,2-dihydro-3Hpyrazolo[3,4-d]pyrimidin-3-one], the melting point fell in the range of 173 to 175 °C.

For `C=CCn1c(=O)c2cnc(Nc3ccc(N4CCOCC4)cc3)nc2n1-c1cccc(C(C)(C)O)n1` [11c, 2-Allyl-1-(6-(2-hydroxypropan-2-yl)pyridin-2-yl)-6-((4-morpholinophenyl)amino)-1,2-dihydro-3Hpyrazolo[3,4-d]pyrimidin-3-one], the melting point is 200 to 203 °C.

On to `C=CCn1c(=O)c2cnc(Nc3ccc(N4CCN(C(=O)OC)CC4)cc3)nc2n1-c1cccc(OC)n1` [11n, Methyl 4-(4-((2-allyl-1-(6-methoxypyridin-2-yl)-3-oxo-2,3-dihydro-1H-pyrazolo[3,4-d]pyrimidin-6-yl)amino)phenyl)piperazine-1-carboxylate], for which the melting point is 197 to 200 °C.

With `C=CCn1c(=O)c2cnc(Nc3ccc(N4CCN(C(=O)OC)CC4)cc3)nc2n1-c1cccc(C(C)(C)O)n1` [11d, Methyl 4-(4-((2-allyl-1-(6-(2-hydroxypropan-2-yl)pyridin-2-yl)-3-oxo-2,3-dihydro-1H-pyrazolo[3,4-d]pyrimidin-6-yl)amino)phenyl)piperazine-1-carboxylate], the “concentration at which cell number decreased and percentage of non-viable cells increased compared with DMSO control” value in data set [1] was 370.4 nM. Also, the brain penetration result in data set [2] is given as “trace amounts”. In addition, the “synergy with cisplatin (Combinatorial Index)” value in the data set on Daoy cells [3] (MTS, Chou-Talalay) was “synergistic activity at lower cisplatin concentrations”. Also, in the data set with ONS-76 cells (MTS assay, 72 hours), the “effect on ONS-76 cell viability as single agent” value is listed as “no effect”.

As to `C=CCn1c(=O)c2cnc(Nc3ccc(N4CCCCC4)cc3)nc2n1-c1cccc(C(F)(F)F)n1` [11f, 2-Allyl-6-((4-(piperidin-1-yl)phenyl)amino)-1-(6-(trifluoromethyl)pyridin-2-yl)-1,2-dihydro-3Hpyrazolo[3,4-d]pyrimidin-3-one], the melting point fell in the range of 182 to 184 °C.

Usually EC50 stands for the concentration needed to bring the measured effect to its halfway point. As to `C=CCn1c(=O)c2cnc(Nc3ccc(N4CCN(C)CC4)cc3)nc2n1-c1cccc(C(C)(C)O)n1` [AZD1775, 2-Allyl-1-(6-(2-hydroxypropan-2-yl)pyridin-2-yl)-6-((4-(4-methylpiperazin-1-yl)phenyl)amino)-1,2-dihydro-3H-pyrazolo[3,4-d]pyrimidin-3-one], the “concentration at which cell number decreased and percentage of non-viable cells increased compared with DMSO control” value in data set [1] is given as 123.5 nM. Further, the brain penetration entry in data set [2] is on record as “trace amounts”. The “potentiation of cisplatin by co-treatment with 300 nM Wee1 inhibitor” value in the data set with Daoy cells [3] (300 nM inhibitor) is on record as “The effect was also potentiated”. In addition, the EC50 with ONS-76 cells (Homo sapiens, ONS-76, 72 h, read-out: EC50, cell viability of ONS-76 cells) was found to be 289 ± 47 nM; in the data set on Daoy cells [4] (Homo sapiens, Daoy, 72 h, read-out: EC50, cellular viability of Daoy cells), 219 ± 26 nM. Also, the “effect of Wee1 inhibitor alone at 300 nM on Daoy cells” value with Daoy cells [4] (300 nM, MTS, 72 hours) is “extensive loss of cellular viability”. The “Wee1 kinase inhibition (HTS hit)” value at Wee1 kinase is “nanomolar inhibitor of Wee1 kinase”.

With `C=CCn1c(=O)c2cnc(Nc3ccc(N4CCN(C)CC4)cc3)nc2n1-c1cccc(C(F)(F)F)n1` [11h, 2-Allyl-6-((4-(4-methylpiperazin-1-yl)phenyl)amino)-1-(6-(trifluoromethyl)pyridin-2-yl)-1,2-dihydro-3H-pyrazolo[3,4-d]pyrimidin-3-one], the melting point lay in the range of 176 to 180 °C.

The molecule `C=CCn1c(=O)c2cnc(Nc3ccc(N(C)C)cc3)nc2n1-c1cccc(OC)n1` [11j, 2-Allyl-6-((4-(dimethylamino)phenyl)amino)-1-(6-methoxypyridin-2-yl)-1,2-dihydro-3H-pyrazolo[3,4-d]pyrimidin-3-one] came in with a melting point of 126 to 128 °C.

Regarding `C=CCn1c(=O)c2cnc(Nc3ccc(N4CCOCC4)cc3)nc2n1-c1cccc(C(F)(F)F)n1` [11g, 2-Allyl-6-((4-morpholinophenyl)amino)-1-(6-(trifluoromethyl)pyridin-2-yl)-1,2-dihydro-3Hpyrazolo[3,4-d]pyrimidin-3-one], the melting point is 215 to 217 °C.

`C=CCn1c(=O)c2cnc(Nc3ccc(N4CCCCC4)cc3)nc2n1-c1cccc(C(C)(C)O)n1` [11b, 2-Allyl-1-(6-(2-hydroxypropan-2-yl)pyridin-2-yl)-6-((4-(piperidin-1-yl)phenyl)amino)-1,2-dihydro-3Hpyrazolo[3,4-d]pyrimidin-3-one] gave a melting point of 158 to 160 °C.
